Laboratory results: PubChem BioAssay AID445 (National Center for Advancing Translational Sciences (NCATS), 2006)
Among all 110,000 compounds or so, about 40 (0.04%) were called active. Inconclusive means that the source gave no clear call. Such entries were picked first, then a sample of the others. The call rests on the fitted dose curve; in most records, active means well fitted curve in the direction sought with a large enough effect in the signal ratio (not every such curve was filed as active); inconclusive means small, poorly fitted or top-dose-only effect, or a change in a side signal; inactive means flat fitted curve, though single readings scatter; the % refers to the signal ratio. Potencies beside an inconclusive call are fits to weak or partial responses and may not hold up.

assay: IkB Signaling; settings: ABC-DLBCL IkBa-CBG/CBR dual luciferase ratio (green luciferase fused to IkBa over red control in OCI-Ly3 lymphoma cells), 4 h; IkBa stabilization activation: at 57.1 µM (top of the series), scaled: untreated 0%, proteasome inhibitor 100% unless noted;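 on IkBa stabilization activation: 0% = basal untreated cells and 100% = reference inhibitor full response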
How it was run: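 Curves were fitted separately to fusion (green), unfused (red) and ratio luminescence, then classed by r2, magnitude and activity. Cells: OCI-Ly3, 4 h compound plus doxycycline at 37C; 10 uM MG-132 defined full response.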
Potency means the concentration at half of the fitted maximal effect.

Compound	IkBa stabilization activation	Potency
CCc1ccc(NC(=O)c2cc(S(=O)(=O)NC3CCCCCC3)ccc2F)cc1	inconclusive: 0.508% [signal inhibitor]	
Cc1nn(-c2ccccc2)c2c1N(CCCC(=O)NC(C)c1ccccc1)C(=O)CS2 (configuration not stated)	inconclusive: 1.99% [signal inhibitor]	
N#Cc1c(-n2cccc2/C=N/O)sc2c1CCCC2	inconclusive: 1.6% [signal inhibitor]	
CCc1ccc(CNC(=O)CCn2nc(C)c3c(C)n(-c4ccccc4)nc3c2=O)cc1	inconclusive: 3.23% [signal inhibitor]	
COc1ncc2nc(-c3ccc(F)cc3)c(=O)n(C3CC3)c2n1	inactive: 2.88% [at 11.4 µM, scaled: untreated 0%, proteasome inhibitor 100%]	
Cc1nn(CCCC(=O)Nc2ccccc2C(F)(F)F)c(=O)c2nn(-c3ccccc3)c(C)c12	inactive: 1.53%	
Cc1cccc(N2CCN(C(=O)c3ccc(Cl)c(S(=O)(=O)NCc4ccco4)c3)CC2)c1C		inconclusive: 31.6 µM [signal inhibitor, partial curve]
Cc1nn2c(-c3ccccc3)cc(-c3ccccc3)nc2c1-c1ccc(Cl)cc1	inactive: -1.82%	
Cc1ccc(-c2nn(CC(C)(C)C)c3ncnc(N)c23)cc1	inconclusive: 0.00777% [signal inhibitor]	
Nn1c(COc2ccccc2)nnc1SC(F)F	inactive: -1.01%	
O=C(Nc1ccccc1)c1cccc(N2CCCS2(=O)=O)c1	inconclusive: -1.18% [signal activator]	
COc1cc(C(=O)OCC(=O)c2c[nH]c3ccccc23)ccc1OCC(=O)N1CCOCC1	inconclusive: 3.84% [signal inhibitor]	
Cc1ccccc1-c1nc(Cc2ccc(Cl)cc2)no1	inactive: -2.52%	
S=C(Nc1ccccn1)c1ccccn1		inconclusive: 31.6 µM [rising, partial curve]
Cc1ccc2c(C)nc(Nc3nc(CSc4nnnn4-c4ccccc4)cc(=O)[nH]3)nc2c1	inactive: 0.281%	
Oc1ccc(N2CCN(c3ncnc4sc5c(c34)CCC5)CC2)cc1		inconclusive: 39.8 µM [signal inhibitor, single point]
COc1ccc2c(c1)c(N1CCCC1=O)c(C(=O)Nc1ccc(OC)c(Cl)c1)n2C	inconclusive: -0.235% [signal inhibitor]	
COc1ccc(Nc2ncc(C(=O)Nc3cccc(Cl)c3)c3ccccc23)cc1	inconclusive: 3.93% [signal inhibitor]	
Cc1cc(N2C3CCC2CC(O)(c2ccc(F)cc2)C3)nc(-c2ccccc2)n1 (configuration not stated)	inconclusive: 2.55% [signal inhibitor]	
O=C1c2ccccc2-c2ccc(N(Cc3ccc(Br)cc3)Cc3ccc(Br)cc3)cc21	inactive: -0.362% [at 11.4 µM, scaled: untreated 0%, proteasome inhibitor 100%]	
COc1ccc(Br)cc1CNC(=O)CCc1nc(-c2ccccc2F)no1	inconclusive: 3.54% [signal inhibitor]	
O=C(O)c1ccc2c3c(cccc13)C(=O)N(c1ccccc1O)C2=O		inconclusive: 7.94 µM [signal inhibitor, partial curve]
Cc1ccc(O)c(NC(=O)c2cc(-c3ccc(F)cc3)no2)c1	inconclusive: 3.02% [signal inhibitor]	

Compound	IkBa stabilization activation	Potency
COc1ccc(CNC(=O)c2ccc(Cn3c(=O)c4cccn4c4cccnc43)cc2)c(OC)c1	inconclusive: 1.87% [signal inhibitor]	
COC(=O)CSc1cc(SCC(=O)OC)c(C#N)c(SCC(=O)OC)c1	inconclusive: 1.22% [signal inhibitor]	
COc1ccc(-n2nc3c(N4CCC(C(=O)N5CCC(C)CC5)CC4)nnc(C)c3c2C)cc1	inconclusive: 2.46% [signal inhibitor]	
CCOC(=O)c1snc(C(=O)NC2CCCCC2)c1N	inconclusive: 5.27% [signal inhibitor]	
O=C(O)C[C@H](Nc1ccccc1)C(=O)O	inactive: 0.618% [at 11.4 µM, scaled: untreated 0%, proteasome inhibitor 100%]	
COCCN(CCOC)S(=O)(=O)c1ccc(C(=O)Nc2nc(C)c(C(C)=O)s2)cc1	inactive: -0.378%	
CCCC(=O)Nc1ccc(NC(=O)c2ccccc2Cl)nc1	inconclusive: 13.1% [signal inhibitor]	
COc1cccc(-c2nc(CS(=O)(=O)CC(=O)N3CCN(c4ccccc4)CC3)c(C)o2)c1	inconclusive: 9.48% [signal inhibitor]	
Cc1ccc(Cl)cc1N1CCN(C(=O)c2ccc3c(Cl)c4c(nc3c2)CCCC4)CC1	inconclusive: 0.368% [signal inhibitor]	
Cc1ccc2cc3c(NC(=O)c4ccco4)nn(C)c3nc2c1	inactive: -2.88%	
COCCn1c(=O)c(-c2cccc(C#N)c2)nc2cnc(N3CCNCC3)nc21	inactive: -3.45% [at 11.4 µM, scaled: untreated 0%, proteasome inhibitor 100%]	
COc1ccccc1CNC(=O)CCc1c(C)c2cc3c(C)coc3cc2oc1=O	inconclusive: 0.432% [signal inhibitor]	
CCn1ccc2c(OCC(=O)Nc3ccc(OC)cc3OC)cccc2c1=O	inconclusive: 4.25% [signal inhibitor]	
O=c1ccc(-c2ccccc2)nn1Cc1c(F)cccc1Cl	inconclusive: -0.16% [signal inhibitor]	
CCn1cc(C(=O)NCCC(C)C)c(=O)c2cc(S(=O)(=O)N(C)C3CCCCC3)ccc21	inconclusive: 4.77% [signal inhibitor]	
O=C1CC(O)(C(F)(F)F)Oc2c1ccc1ccccc21 (configuration not stated)	inconclusive: -0.415% [signal inhibitor]	
O=C(Cn1c(-c2cccs2)cc2cc(F)ccc21)NCCc1ccc(Cl)cc1	inconclusive: 4.91% [signal inhibitor]	
O=S(=O)(Nc1ccc(O)c(Sc2nc3ccccc3s2)c1)c1cc(Cl)ccc1Cl	inconclusive: 2.41% [signal inhibitor]	
Cc1c(Cl)cccc1NC(=O)C(=O)NCCc1csc2nc(-c3ccccc3F)nn12	inconclusive: 4.83% [signal inhibitor]	
COc1ccc(-c2noc(CN(C)S(=O)(=O)c3c(C)cc(C)cc3C)n2)cc1OC	inconclusive: 1.17% [signal inhibitor]	
CCC(C(=O)Nc1cccc(Cl)c1C)n1nc(C)c2sc3ccccc3c2c1=O (configuration not stated)	inactive: 5.9%	
COc1ccc(C)cc1NC(=O)c1ccc(NS(=O)(=O)c2c(C)noc2C)cc1	inactive: -1.94%	
Cc1ccc(-c2nc(CCNC(=O)c3ccc(C)c(C)c3)cs2)cc1	inconclusive: 2.14% [signal inhibitor]	

Compound	IkBa stabilization activation	Potency
c1ccc(Nc2nc(-c3cccnc3)cs2)nc1		inconclusive: 25.1 µM [signal inhibitor, partial curve]
CC(C)(C)OC(=O)N1CCC(c2c(C(=O)NCc3ccccc3)cnn2-c2cccc(F)c2)CC1	inconclusive: 2.12% [signal inhibitor]	
COc1ccccc1-c1nc2n(n1)C(c1ccccc1Cl)C(C(=O)Nc1cccnc1)=C(C)N2 (configuration not stated)	inconclusive: 13.2% [signal inhibitor]	
CCSc1nn(CC(=O)Nc2cccc(CC)c2)c(N)c1S(=O)(=O)c1ccccc1	inconclusive: 4.74% [signal inhibitor]	
Cc1oc(-c2ccc(Cl)cc2)nc1CN1CCCC(C(=O)NCCc2ccc(Cl)cc2)C1 (configuration not stated)	inconclusive: -0.382% [signal inhibitor]	
COCCCNC(=O)C1CCN(Cc2cc3ccccc3n2Cc2ccccc2C)CC1	inconclusive: 1.26% [signal inhibitor]	
Cc1ccc(S(=O)(=O)c2c(O)cc(C)c(NS(=O)(=O)c3ccc(Br)cc3)c2C)cc1	inconclusive: 9.9% [signal inhibitor]	
O=c1cc(-c2ccccc2O)oc2ccc3ccccc3c12	inactive: 20.1% [at 11.4 µM, scaled: untreated 0%, proteasome inhibitor 100%]	
CCOc1ccc(C2C=C(c3ccc(C)cc3)Nc3ncnn32)cc1 (configuration not stated)	inactive: 3.48%	
O=C(c1ccccc1)c1ccc(N2CCCC2)cc1	inactive: 5.71%	
CCCn1c(NC(=O)c2ccccc2)nc2ccccc21		inconclusive: 31.6 µM [rising, partial curve]
C=CCn1c(=O)c2ccccc2n2c(SCC(=O)NCc3cccs3)nnc12	inconclusive: 8% [signal inhibitor]	
c1ccc(CNCCN2CCNCC2)nc1	inactive	
Cc1[nH]c2ccccc2c1-c1cc(-c2cc(-c3c(C)[nH]c4ccccc34)on2)no1	inactive: 0.684% [at 11.4 µM, scaled: untreated 0%, proteasome inhibitor 100%]	
COc1cc(/C=C/c2nc(C#N)c(N3CCN(C)CC3)o2)cc(OC)c1OC	inconclusive: 0.527% [signal inhibitor]	
Cn1ncc2c1ncn1nc(CCc3ccccc3)nc21	inactive: -1.08%	
CC(C)OCCCNC(=O)c1cc2c(=O)n(C)c3ccccc3c2n1C	inactive: -1.05%	
CN(C(=O)c1ccc2c(c1)N(Cc1cccc(Cl)c1)C(=O)c1ccccc1S2(=O)=O)C1CCCCC1	inconclusive: 0.519% [signal inhibitor]	
COc1ccccc1Cn1c(-c2ccco2)nc2nc3ccccc3nc21	inactive: 5.78%	
CSc1cccc(NC(=O)C2CCN(c3nc4ccccc4[nH]3)CC2)c1	inconclusive: 4.74% [signal inhibitor]	
Cc1ccc(Cn2c(SCc3ccc(C(=O)NC4CCCCC4)cc3)nc3ccncc32)cc1	inconclusive: -0.239% [signal inhibitor]	
